The list shows a part of the results.

For the assay, the target named is T1, OsWOX13 (Oryza sativa, UniProt Q5QMM3 1-267).
T1 sequence: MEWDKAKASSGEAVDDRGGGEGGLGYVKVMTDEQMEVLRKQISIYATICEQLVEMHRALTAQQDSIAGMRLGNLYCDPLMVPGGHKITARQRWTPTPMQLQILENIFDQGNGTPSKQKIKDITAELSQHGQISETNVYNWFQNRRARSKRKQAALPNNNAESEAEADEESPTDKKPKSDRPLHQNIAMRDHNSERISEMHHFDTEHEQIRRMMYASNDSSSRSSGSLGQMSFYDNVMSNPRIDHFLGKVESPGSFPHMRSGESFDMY
The assay can be described thus: protein-binding microarray (RPBM); PBS, 2% BSA, 51.3 ng/ul salmon testes DNA, 50 uM zinc acetate, 200 nM TF, 25 C, 1 h; high values mean tight binding. To be noted: protein: recombinant; tags: N-terminal polyhistidine and DsRed monomer fusion (pET32a); label: CyDye5-dUTP incorporated in the synthesized complementary strand; 3' TTTTT single-stranded linker to array surface; dsDNA, one strand shown. The procedure, abridged:
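Polyhistidine-tagged DsRed fusions of transcription factors, joined at the N-terminus, were expressed in E. coli BL21-CodonPlus and isolated on Ni–NTA. They were incubated at 200 nM for 1 h at 25 °C on a custom Agilent array, double-stranded and BSA-blocked, in PBS with 2% BSA, salmon testes DNA and 50 µM zinc acetate. The binding signal is per-feature fluorescence intensity (arbitrary units) read on an Axon 4000B scanner after washing.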
As to “TTTAATCAATTATGTTTAGTTAGTCTTTTAATTTCCGGCTCGGAGTCACCTAGTGCAG”, the binding signal is 28800 fluorescence intensity (a.u.).

Regarding “CGATGGAGCAGCGGCGTCGTGTGGCCTTGGTTGCTTCGGACGGAGTCACCTAGTGCAG”, the binding signal was 6380 fluorescence intensity (a.u.).

Regarding “GTAAATATATCATCAATCTAAATGATACCTACTGCATATACGGAGTCACCTAGTGCAG”, the binding signal was 10600 fluorescence intensity (a.u.).

Consider “ACACAGATTACGTGTAAATTGCGAGACAAATCTTTTAACCCGGAGTCACCTAGTGCAG”, for which the binding signal was 20500 fluorescence intensity (a.u.).

As for “TTTGACTGAAAATTCTGAGTGTGCTTCCCCAGGTGTGGAGCGGAGTCACCTAGTGCAG”, the binding signal was 25800 fluorescence intensity (a.u.).

With “TTCTTTGTTGGATTGATGATCGCTTTTGTGTGGGAGAGGTCGGAGTCACCTAGTGCAG”, the binding signal was 4830 fluorescence intensity (a.u.).

In the case of “ACATTAATATGAATATATCAATATAGATGTGGGAAGTGCTCGGAGTCACCTAGTGCAG”, the binding signal was 3220 fluorescence intensity (a.u.).

For the sequence “TCGGAAATTATGTATAGTTCGATGATACACATATCATTGACGGAGTCACCTAGTGCAG”, the binding signal was 5460 fluorescence intensity (a.u.).

With “AAGATCACATTTGATTGTGTGAGCCAAGTTTGGGAGGTCGCGGAGTCACCTAGTGCAG”, the binding signal is 5450 fluorescence intensity (a.u.).

On to “TTCTCTAATTTATTAGAACGCCATATGACGACTTAGAAGCCGGAGTCACCTAGTGCAG”, for which the binding signal was 11600 fluorescence intensity (a.u.).

Take “AAAATAATTATACCAATAGGAATGCCTTTATACCATCTTCCGGAGTCACCTAGTGCAG”: the binding signal is 9720 fluorescence intensity (a.u.).

As to “TAGATTGCTATTTGTTGGAATATGATAGAGGTGGGGAAGGCGGAGTCACCTAGTGCAG”, the binding signal is 7210 fluorescence intensity (a.u.).

Turning to “TTAAACAACATTAATCAACCTAATAACATGTTTTAGTTGCCGGAGTCACCTAGTGCAG”, the binding signal is 7890 fluorescence intensity (a.u.).

In the case of “TCCCTCATTTGACAAATTATGGCAAACGTTTTGCAACTTCCGGAGTCACCTAGTGCAG”, the binding signal was 4630 fluorescence intensity (a.u.).

“ACGTGATACATCTTGTTCTAGATTTGTTTAATTTAAGCCACGGAGTCACCTAGTGCAG”: the binding signal was 3240 fluorescence intensity (a.u.).

With “TAAACTTTTACTATCAATCATCTGAACCGTTTAATTTAAGCGGAGTCACCTAGTGCAG”, the binding signal was 14200 fluorescence intensity (a.u.).

In the case of “ACTAATTTCATAACTTGTCTGGAAACAGCGAGATGAATTTCGGAGTCACCTAGTGCAG”, the binding signal is 5470 fluorescence intensity (a.u.).

On to “TTTGATTTGGGAAAGATAATATATCTTGCTACTTTGTCTTCGGAGTCACCTAGTGCAG”, for which the binding signal was 18200 fluorescence intensity (a.u.).

As to “CAAACTTTGATAGGGACCAAATGCGGCTTTACCACCTCCACGGAGTCACCTAGTGCAG”, the binding signal is 3560 fluorescence intensity (a.u.).

With “CCCTGTGTGATTTGAGATCAGTGTTTGTTTTCTTTGTATACGGAGTCACCTAGTGCAG”, the binding signal was 11700 fluorescence intensity (a.u.).

Consider “GGTTGAGGTTGATTAGATGCATCATATGATGCTTTGTCGGCGGAGTCACCTAGTGCAG”, for which the binding signal was 12600 fluorescence intensity (a.u.).

Turning to “ATTTAAATTCAAATTTGAATCGAATATAATTCAAATTCAACGGAGTCACCTAGTGCAG”, the binding signal was 3340 fluorescence intensity (a.u.).

Consider “ACATACTGAATTTTAACTTAATTGAAAGGGTATAGAGAACCGGAGTCACCTAGTGCAG”, for which the binding signal was 32900 fluorescence intensity (a.u.).

In the case of “CTAAACAGGCCTATGTTGTTCTCTCTTATGTGTAATTTGCCGGAGTCACCTAGTGCAG”, the binding signal was 3880 fluorescence intensity (a.u.).

As to “CTATAGATTGGCTATCGTACATGAATGTTAATATATTTCTCGGAGTCACCTAGTGCAG”, the binding signal was 7920 fluorescence intensity (a.u.).

Consider “GTCTTGTGATCTTGATTGTGTAGAGGAAGAAATTACTATTCGGAGTCACCTAGTGCAG”, for which the binding signal is 3800 fluorescence intensity (a.u.).

Consider “CACCAATTACATTGTCAAACAGCAGGGCACCACAAGCAATCGGAGTCACCTAGTGCAG”, for which the binding signal was 11400 fluorescence intensity (a.u.).

As to “GGAGCTAATAATTAATTAATAATGTACTAAAGGATTGCTCCGGAGTCACCTAGTGCAG”, the binding signal is 22400 fluorescence intensity (a.u.).

On to “TCAATTAGAAATTAAACCGTGAGTTTCCCGGAATCGATCCCGGAGTCACCTAGTGCAG”, for which the binding signal is 4220 fluorescence intensity (a.u.).

As for “GAAAATCTGTGGGAGGGGAGGGGAGGGGACGAGGGGACAGCGGAGTCACCTAGTGCAG”, the binding signal is 5600 fluorescence intensity (a.u.).

Take “CTTGGTTTATTTTGATTTGCTGACTATAACACTTGATTCTCGGAGTCACCTAGTGCAG”: the binding signal is 4690 fluorescence intensity (a.u.).

As for “ACATAATTAATCCTTATAATAATTTAGATGCATTTATAAACGGAGTCACCTAGTGCAG”, the binding signal is 20200 fluorescence intensity (a.u.).

As to “ATTGATTTGATAAAACTAATTTAGTACTATAAATATTACTCGGAGTCACCTAGTGCAG”, the binding signal was 29400 fluorescence intensity (a.u.).

“ATGAGCTAATTATATATGTTGATATTTGTTTCTATTATAACGGAGTCACCTAGTGCAG”: the binding signal was 5240 fluorescence intensity (a.u.).

On to “GAGTGAAATGTCAATCAACCATGCAAGCACCTGAAGAGTTCGGAGTCACCTAGTGCAG”, for which the binding signal is 20200 fluorescence intensity (a.u.).

On to “TTAATTAGCAATCGCCTATATAATCAGCTAGCGCAACAACCGGAGTCACCTAGTGCAG”, for which the binding signal was 23000 fluorescence intensity (a.u.).

Turning to “GAGGTAATTCCTCCTTTAATTTGTGTAAACAAATCTCAGCCGGAGTCACCTAGTGCAG”, the binding signal was 14900 fluorescence intensity (a.u.).

Consider “ATTATGTTGGAAATTGATTAGTTGAAAAGAAACATCCAAACGGAGTCACCTAGTGCAG”, for which the binding signal was 23900 fluorescence intensity (a.u.).

Take “TTCTTTTAACCGGCAATTATGAAAGCTAGATAAGAAAATGCGGAGTCACCTAGTGCAG”: the binding signal is 3350 fluorescence intensity (a.u.).

Turning to “AATTGTAACTATAATTGTTTGAGTAGAATTGTAACTATGGCGGAGTCACCTAGTGCAG”, the binding signal was 10100 fluorescence intensity (a.u.).

Regarding “GCAGTCCATTAACACGTGATTAATTAAGTATTAGTTAATTCGGAGTCACCTAGTGCAG”, the binding signal was 21800 fluorescence intensity (a.u.).

As to “TTTACTAAGCAATCAAGATAACCTGATGTGCCTATCCATCCGGAGTCACCTAGTGCAG”, the binding signal is 10200 fluorescence intensity (a.u.).

Source of the values: paper PMC7819943, “Rice protein-binding microarrays: a tool to detect cis-acting elements near promoter regions in rice”.
